Some of the results follow.
Experiments:
Test in all cases: glycan array binding signal (z-score within array); higher = stronger binding
Conditions in all cases: glycan notation: IUPAC condensed, linker removed; mutation: R85A
[1] = molecular target: Gal(b1-3)[Fuc(a1-4)]GlcNAc
Method in brief: (§1)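 The Consortium for Functional Glycomics database supplied 3228 glycan arrays, of which those lacking an available protein sequence were dropped. The binding signal, a within-array Z-score, was averaged across arrays of the same protein sequence and across linkers. Negative scores can be read as non-binding.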

[2] = molecular target: Gal(b1-3)[Fuc(a1-4)]GlcNAc(b1-2)Man(a1-3)[Gal(b1-3)[Fuc(a1-4)]GlcNAc(b1-2)Man(a1-6)]Man(b1-4)GlcNAc(b1-4)GlcNAc
Method in brief: as §1

[3] = molecular target: Gal(b1-3)[Fuc(a1-4)]GlcNAc(b1-2)Man(a1-3)[Gal(b1-3)[Fuc(a1-4)]GlcNAc(b1-2)Man(a1-6)]Man(b1-4)GlcNAc(b1-4)[Fuc(a1-6)]GlcNAc
Method in brief: as §1

[4] = molecular target: Gal(b1-3)[Fuc(a1-4)]GlcNAc(b1-3)Gal(b1-3)[Fuc(a1-4)]GlcNAc
Method in brief: as §1

[5] = molecular target: Gal(b1-3)[Fuc(a1-4)]GlcNAc(b1-3)Gal(b1-4)GlcNAc
Method in brief: as §1

[6] = molecular target: Gal(b1-3)[Fuc(a1-4)]GlcNAc(b1-3)Gal(b1-4)[Fuc(a1-3)]GlcNAc
Method in brief: as §1

[7] = molecular target: Gal(b1-3)[GlcNAc(b1-6)]GalNAc
Method in brief: as §1

[8] = molecular target: Gal(b1-3)[Neu5Ac(a2-6)]GalNAc
Method in brief: as §1

[9] = molecular target: Gal(b1-3)[Neu5Ac(a2-6)]GlcNAc(b1-6)Gal(b1-4)Glc
Method in brief: as §1

[10] = molecular target: Gal(b1-3)[Neu5Ac(b2-6)]GalNAc
Method in brief: as §1

[11] = molecular target: Gal(b1-4)GalNAc(a1-3)[Fuc(a1-2)]Gal(b1-4)GlcNAc
Method in brief: as §1

[12] = molecular target: Gal(b1-4)GalNAc(b1-3)[Fuc(a1-2)]Gal(b1-4)GlcNAc
Method in brief: as §1

Gal(b1-4)Glc = molecular target: Gal(b1-4)Glc
Method in brief: as §1

Gal(b1-4)Glc6S = molecular target: Gal(b1-4)Glc6S
Method in brief: as §1

Gal(b1-4)GlcNAc = molecular target: Gal(b1-4)GlcNAc
Method in brief: as §1

[13] = molecular target: Gal(b1-4)GlcNAc(a1-6)Gal(b1-4)GlcNAc
Method in brief: as §1

[14] = molecular target: Gal(b1-4)GlcNAc(b1-2)Man(a1-3)Man(b1-4)GlcNAc(b1-4)GlcNAc
Method in brief: as §1

[15] = molecular target: Gal(b1-4)GlcNAc(b1-2)Man(a1-3)[Gal(b1-4)GlcNAc(b1-2)Man(a1-6)]Man(b1-4)GlcNAc(b1-4)GlcNAc
Method in brief: as §1

[16] = molecular target: Gal(b1-4)GlcNAc(b1-2)Man(a1-3)[Gal(b1-4)GlcNAc(b1-2)Man(a1-6)]Man(b1-4)GlcNAc(b1-4)[Fuc(a1-6)]GlcNAc
Method in brief: as §1

[17] = molecular target: Gal(b1-4)GlcNAc(b1-2)Man(a1-3)[GlcNAc(b1-2)Man(a1-6)]Man(b1-4)GlcNAc(b1-4)GlcNAc
Method in brief: as §1

[18] = molecular target: Gal(b1-4)GlcNAc(b1-2)Man(a1-3)[Man(a1-6)]Man(b1-4)GlcNAc(b1-4)GlcNAc
Method in brief: as §1

[19] = molecular target: Gal(b1-4)GlcNAc(b1-2)Man(a1-6)Man(b1-4)GlcNAc(b1-4)GlcNAc
Method in brief: as §1

[20] = molecular target: Gal(b1-4)GlcNAc(b1-2)Man(a1-6)[GlcNAc(b1-2)Man(a1-3)]Man(b1-4)GlcNAc(b1-4)GlcNAc
Method in brief: as §1

[21] = molecular target: Gal(b1-4)GlcNAc(b1-2)Man(a1-6)[Man(a1-3)]Man(b1-4)GlcNAc(b1-4)GlcNAc
Method in brief: as §1

[22] = molecular target: Gal(b1-4)GlcNAc(b1-2)[Gal(b1-4)GlcNAc(b1-4)]Man(a1-3)[Gal(b1-4)GlcNAc(b1-2)Man(a1-6)]Man(b1-4)GlcNAc(b1-4)GlcNAc
Method in brief: as §1

[23] = molecular target: Gal(b1-4)GlcNAc(b1-2)[Gal(b1-4)GlcNAc(b1-4)]Man(a1-3)[Gal(b1-4)GlcNAc(b1-2)[Gal(b1-4)GlcNAc(b1-6)]Man(a1-6)]Man(b1-4)GlcNAc(b1-4)GlcNAc
Method in brief: as §1

[24] = molecular target: Gal(b1-4)GlcNAc(b1-3)Gal(b1-3)GlcNAc
Method in brief: as §1

[25] = molecular target: Gal(b1-4)GlcNAc(b1-3)Gal(b1-4)Glc
Method in brief: as §1

[26] = molecular target: Gal(b1-4)GlcNAc(b1-3)Gal(b1-4)GlcNAc
Method in brief: as §1

[27] = molecular target: Gal(b1-4)GlcNAc(b1-3)Gal(b1-4)GlcNAc(b1-3)Gal(b1-4)GlcNAc
Method in brief: as §1

[28] = molecular target: Gal(b1-4)GlcNAc(b1-3)Gal(b1-4)[Fuc(a1-3)]GlcNAc(b1-3)Gal(b1-4)[Fuc(a1-3)]GlcNAc
Method in brief: as §1

[29] = molecular target: Gal(b1-4)GlcNAc(b1-3)GalNAc
Method in brief: as §1

[30] = molecular target: Gal(b1-4)GlcNAc(b1-3)[Gal(b1-4)GlcNAc(b1-6)]Gal(b1-4)GlcNAc
Method in brief: as §1

[31] = molecular target: Gal(b1-4)GlcNAc(b1-3)[Gal(b1-4)GlcNAc(b1-6)]GalNAc
Method in brief: as §1

[32] = molecular target: Gal(b1-4)GlcNAc(b1-3)[GlcNAc(b1-6)]Gal(b1-4)GlcNAc
Method in brief: as §1

[33] = molecular target: Gal(b1-4)GlcNAc(b1-6)Gal(b1-4)GlcNAc
Method in brief: as §1

[34] = molecular target: Gal(b1-4)GlcNAc(b1-6)GalNAc
Method in brief: as §1

[35] = molecular target: Gal(b1-4)GlcNAc(b1-6)[Gal(b1-3)]GalNAc
Method in brief: as §1

Gal3S(b1-3)GalNAc = molecular target: Gal3S(b1-3)GalNAc
Method in brief: as §1

Gal3S(b1-3)GlcNAc = molecular target: Gal3S(b1-3)GlcNAc
Method in brief: as §1

[36] = molecular target: Gal3S(b1-3)[Fuc(a1-4)]GlcNAc
Method in brief: as §1

Gal3S(b1-4)Glc = molecular target: Gal3S(b1-4)Glc
Method in brief: as §1

Gal3S(b1-4)Glc6S = molecular target: Gal3S(b1-4)Glc6S
Method in brief: as §1

Gal3S(b1-4)GlcNAc = molecular target: Gal3S(b1-4)GlcNAc
Method in brief: as §1

Gal3S(b1-4)GlcNAc6S = molecular target: Gal3S(b1-4)GlcNAc6S
Method in brief: as §1

B1: rAAL (Agrocybe aegerita), Q6WY08 (protein)
chain: MQGVNIYNISAGTSVDLAAPVTTGDIVTFFSSALNLNAGAGNPNNTTLNLFAENGAYLLHIAFRLQENVIIFNSRQPDGPWLVEQAVSDVANQFAGIDGKAMVTVFDHGDKYQVVINEKTVIQYTKQISGLTLSLSYNATEETSIFSTVVEAVTYTGLALEHHHHHH
glycan array binding signal (z-score) [1]: -0.134 | glycan array binding signal (z-score) [2]: 0.056 | glycan array binding signal (z-score) [3]: -0.11 | glycan array binding signal (z-score) [4]: -0.129 | glycan array binding signal (z-score) [5]: -0.112 | glycan array binding signal (z-score) [6]: -0.114 | glycan array binding signal (z-score) [7]: -0.113 | glycan array binding signal (z-score) [8]: -0.134 | glycan array binding signal (z-score) [9]: -0.13 | glycan array binding signal (z-score) [10]: -0.13 | glycan array binding signal (z-score) [11]: -0.115 | glycan array binding signal (z-score) [12]: -0.135 | glycan array binding signal (z-score) (Gal(b1-4)Glc): -0.117 | glycan array binding signal (z-score) (Gal(b1-4)Glc6S): -0.099 | glycan array binding signal (z-score) (Gal(b1-4)GlcNAc): -0.13 | glycan array binding signal (z-score) [13]: -0.134 | glycan array binding signal (z-score) [14]: -0.13 | glycan array binding signal (z-score) [15]: -0.141 | glycan array binding signal (z-score) [16]: -0.132 | glycan array binding signal (z-score) [17]: -0.135 | glycan array binding signal (z-score) [18]: -0.138 | glycan array binding signal (z-score) [19]: -0.139 | glycan array binding signal (z-score) [20]: -0.131 | glycan array binding signal (z-score) [21]: -0.138 | glycan array binding signal (z-score) [22]: -0.132 | glycan array binding signal (z-score) [23]: -0.134 | glycan array binding signal (z-score) [24]: -0.122 | glycan array binding signal (z-score) [25]: -0.119 | glycan array binding signal (z-score) [26]: -0.126 | glycan array binding signal (z-score) [27]: -0.132 | glycan array binding signal (z-score) [28]: -0.136 | glycan array binding signal (z-score) [29]: -0.132 | glycan array binding signal (z-score) [30]: -0.139 | glycan array binding signal (z-score) [31]: -0.129 | glycan array binding signal (z-score) [32]: -0.118 | glycan array binding signal (z-score) [33]: -0.133 | glycan array binding signal (z-score) [34]: -0.117 | glycan array binding signal (z-score) [35]: -0.11 | glycan array binding signal (z-score) (Gal3S(b1-3)GalNAc): 14.6 | glycan array binding signal (z-score) (Gal3S(b1-3)GlcNAc): 3.42 | glycan array binding signal (z-score) [36]: -0.135 | glycan array binding signal (z-score) (Gal3S(b1-4)Glc): 3.77 | glycan array binding signal (z-score) (Gal3S(b1-4)Glc6S): 4.38 | glycan array binding signal (z-score) (Gal3S(b1-4)GlcNAc): -0.092 | glycan array binding signal (z-score) (Gal3S(b1-4)GlcNAc6S): 0.209

From the supplement of paper PMC8728848
